Data as given in PubChem BioAssay AID1508624 (National Center for Advancing Translational Sciences (NCATS), 2021).
Out of some 48,000 compounds screened, about 120 (0.25%) were called active. About 4% were inconclusive and are not listed. Calls come from the whole dose curve; as a rule, active = well fitted activation curve with a large enough effect; inconclusive = small, poorly fitted or top-dose-only effect, or another doubt; inactive = no such curve, though single readings can be large or run the other way. The list shows a part of the results.

Assay: Primary qHTS for Identification of Small Molecule Activators of Huntingtin-Antisense Promoter Activity; note: nearly all actives have a fitted effect of over 55% in size
Conditions: HEK293 HTT-AS promoter firefly luciferase reporter, 24 h; series mostly up to 57.5 µM; activity change, positive = activation: at the top concentration
Outline: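 HEK293 cells carrying firefly luciferase reporters were seeded at 2,500 per well in Opti-MEM and cultured for 24 h. They were then treated with compounds at up to 57.5 uM final for 24 h at 37 degrees C before Dual-Glo luminescence readout.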

Activity change, positive = activation, inactive:
CCCc1nn2c(=O)cc(COC(=O)c3ccco3)nc2s1 -5.31%
Cc1c(C(=O)NCc2ccc(F)cc2)sc2nc(-c3ccc(F)cc3)cn12 -10.8%
CCCCOc1ccccc1C1CC(=O)Nc2cc(OC)c(OC)cc21 (configuration not stated) -23.7%
CC(=O)Nc1c(C)nn(-c2ccccc2)c1N1CCC(C(=O)Nc2cccc(C(F)(F)F)c2)CC1 5.96%
O=C(CSc1ncc2c(n1)-c1ccc(Cl)cc1N(Cc1ccccc1)S2(=O)=O)Nc1ccccc1C(F)(F)F 14.7%
CCOC(=O)Cn1c(=O)n(CC2CCCO2)c2nc(-c3ccc(CC)cc3)nc(C(N)=O)c21 (configuration not stated) -7.04%
CCCN(CCC)C(=O)C1CCCN(c2ncnc3c2nc2n3CCCCC2)C1 (configuration not stated) -25.9%
CCc1nnc2c3ccccc3nc(N3CCN(c4cc(C)ccc4C)CC3)n12 -19.4% [at 11.5 µM, percent change from vehicle, -100% = no light]
Cc1ccccc1CN1C(=O)c2ccccc2S(=O)c2ccc(C(=O)NCc3ccc4c(c3)OCO4)cc21 (configuration not stated) -23.9%
COc1cccc(CNC(=O)CCC(=O)N2CC(C)Sc3ccccc32)c1 (configuration not stated) -20.5%
COc1ccc(CNC(=O)C(=O)Nc2cc(Cl)ccc2OC)cc1 7.95%
CC(=O)Nc1cc(C(=O)Nc2ccc3c(c2)N(C)C(=O)c2ccccc2S3)ccc1C -19.9%
COc1ccc(N2CCN(S(=O)(=O)CCNC(=O)c3c(F)cccc3Cl)CC2)cc1 -5.11%
Cc1ccc(S(=O)(=O)c2nnn3c2nc(N2CCC(C(N)=O)CC2)c2cc(Cl)ccc23)cc1C -25.6%
Cc1ccc(NS(=O)(=O)c2c(C)nc3sc(C)cn3c2=O)c(C)c1 -32.1%
CNCC[C@H](Oc1cccc2ccccc12)c1cccs1
Cc1nc2c(c(C)nn2C(C)(C)C)c(C)c1CCC(=O)Nc1ccc(Br)cc1Br -4.27%
COc1ccc(C(=O)Nc2nc3n(n2)C(c2ccc(F)cc2)C=C(c2ccc(Cl)cc2)N3)cc1 (configuration not stated) -34.8%
CCn1c(=O)c2sccc2n2c(CCCC(=O)Nc3ccc(OC)c(OC)c3)nnc12 5.33%
CCOC(=O)c1ccc(NC(=O)c2cc3c([nH]c2=O)CC(c2ccccc2)CC3=O)cc1 (configuration not stated) -3.78%
N#C/C(=C1\SCC(c2ccccc2Cl)S1)n1ccnc1 (configuration not stated) -5.46%
COc1ccc(-n2cc(-c3ccc4c(c3)OCO4)n(CC(=O)Nc3cccc(C)c3)c2=O)cc1 -1.95%
COc1cccc(-c2n[nH]c3c2C(c2ccccn2)N(C)C3=O)c1 (configuration not stated) -8.91%
O=C(CC1N=C2c3ccccc3N=C(SCC(=O)Nc3ccc(F)cc3)N2C1=O)NCc1ccc2c(c1)OCO2 (configuration not stated) 0.012%
Cc1cccc(NC(=O)Cn2cc(S(=O)(=O)Cc3ccccc3Cl)c3ccccc32)c1 -27.2%
Cc1cc(C)n(C(C)CC(=O)Nc2ccc(C)c(F)c2)n1 (configuration not stated) -10.4%
Cc1ccccc1Cn1c(SCc2ccc(C(=O)NCCc3ccccc3)cc2)nc2ccncc21 -3.51%
CSc1ncc(Cl)c(C(=O)N(Cc2ccc(C(C)C)cc2)C2CCS(=O)(=O)C2)n1 (configuration not stated) 0%
CCn1cc(S(=O)(=O)c2ccc(C)cc2C)c(=O)c2cc(F)c(N3CCCCC3)cc21 -25.4%
CCOc1ccc(NC(=O)CN2CCSc3ccc(S(=O)(=O)N4CCCC4)cc32)cc1 -38.8%
CCN(CC)c1cc2c(cc1F)c(=O)c(S(=O)(=O)c1ccccc1)cn2C 8.2%
COC(=O)c1c(NC(=O)/C=C/c2ccc(OC)c(OC)c2)sc2c1CCC2 -12%
Cc1cc(C)cc(N(CC(=O)NCc2ccccc2Cl)S(=O)(=O)c2c(C)[nH]c(=O)[nH]c2=O)c1 -5.59%
Cc1noc(Cn2c(=O)c3ccccc3n(CC(=O)Nc3ccc(C(C)C)cc3)c2=O)n1 -19.2%
CC(Nc1oc(-c2ccc(COc3ccc(Cl)cc3)o2)nc1C#N)c1ccccc1 (configuration not stated) -17.6%
CCN(CC)CCCNC(=O)CN1C(=O)COc2ccc(S(=O)(=O)N3CCC(C)CC3)cc21 -11.6%
CCN(CC)c1ccc(NC(=O)CN2C(=O)c3cccnc3Oc3ccc(Cl)cc32)c(C)c1 -5.22%
COCCNC(=O)CSc1nnc2[nH]c(=O)cc(C)n12 10.7%
O=C(NCc1ccccc1)c1ccc2c(c1)nc1n2CCOC1 3.83%
CCc1ccccc1NS(=O)(=O)c1cc(Br)cc2c1N(C(=O)C1CC1)CC2 -56.7%
C[N+]1(C)CCCC(OC(=O)C(O)(c2ccccc2)c2ccccc2)C1 (configuration not stated) -4.33%
CCOC(=O)Cn1c(=O)n(CC2CCCO2)c2nc(-c3c(F)cccc3Cl)nc(C(N)=O)c21 (configuration not stated) -13.3%
CCc1cccc(NS(=O)(=O)c2cc(-c3cnc(C)o3)ccc2OC)c1 -20.8%
COc1cc(Cl)c(NC(=O)C(NS(=O)(=O)c2cccs2)C(C)C)c(OC)c1 (configuration not stated) 7.16%
CCCN(Cc1cccs1)C(=O)Nc1ccc(F)c(Cl)c1 3.03%
COc1ccc(OC)c(Nc2c3c(nc4ccccc24)CCC3)c1 -39.6%
CCc1ccc(NC(=O)c2ccc(F)c(S(=O)(=O)NCCc3ccc(OC)c(OC)c3)c2)cc1 -27.7%
C[C@H]1O[C@H](O[C@H]2[C@H](O)[C@@H](O)[C@@H](O[C@H]3[C@H](O)[C@@H](O)C(O)O[C@H]3CO)O[C@H]2CO)[C@H](O)[C@@H](O)[C@H]1N[C@H]1C=C(CO)[C@@H](O)[C@H](O)[C@@H]1O (some centres not stated) 0.075%
CS(=O)(=O)N1CCc2cc(C(=O)Nc3ccc(S(N)(=O)=O)cc3)ccc21 0.317%
COc1cccc(Nc2sc(C(=O)c3ccc(Cl)cc3)c(N)c2C(=O)NCCc2ccc(OC)c(OC)c2)c1 -11.2%
CC(=O)c1ccc2c(c1)N(CCCN1CCC(CCO)CC1)c1ccccc1S2 -16.5%
Cc1cccc(C(=O)OCc2cc(=O)n3nc(-c4cccs4)sc3n2)c1 1.48%
CCCSc1nnc2n(-c3cccc(C)c3)c(=O)c3c4c(sc3n12)CCCC4 -5.13%
Cc1ccc(C)c(NC(=O)Cn2c(=O)n(Cc3ccc4c(c3)OCO4)c(=O)c3ccccc32)c1 -16.3%
Cc1ccc(-n2ncc(C(=O)NCCCN3CCN(C)CC3)c2C2CCN(C(=O)OC(C)(C)C)CC2)c(C)c1 15.5%
CC(C)(C)OC(=O)N1CCC(c2c(C(=O)N3CCCCC3)cnn2-c2ccc(F)cc2F)CC1 -10.1%
Cn1c(Oc2ccccc2)nc2c1c(=O)n(Cc1ccc(Cl)cc1Cl)c(=O)n2C -30%
